# Inconclusive means that the source gave no clear call. Such entries were picked first, then a sample of the others. For some of these results: Potencies beside an inconclusive call are fits to weak or partial responses and may not hold up. Calls of active or inactive are those of the source. Unless noted, the call rests on the fitted dose curve; in most records, active means well fitted curve in the direction sought with a large enough effect in the repeat runs; inconclusive means weak or mixed curves; inactive means no such curve, though single readings can be large; an effect the other way counts as inactive or inconclusive.
# Key:
# [1] = qHTS assay to identify small molecule antagonists of the constitutive androstane receptor (CAR) signaling pathway - cell viability counter screen (AID 1224837); details: HepG2-CYP2B6-hCAR viability, CellTiter-Fluor, 23 h, co-treated with 50 nM CITCO; series mostly up to 92.4 µM; further: nearly all actives have a fitted effect of over 45% in size; further: potency means the concentration at half of the fitted maximal effect
# In short: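 Using CellTiter-Fluor, viability is scored in HepG2 cells stably carrying hCAR and a 2.2kb CYP2B6 reporter after 23 hr compound exposure across 15 concentrations, with CITCO present at 50 nM.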
# [2] = qHTS assay to identify small molecule agonists of H2AX (AID 1224845; active means well fitted activation curve with a large enough effect in the signal ratio in the repeat runs, not every such curve was filed as active; inconclusive means weak or mixed curves; the % refers to the signal ratio; further: potency means the concentration at half of the fitted maximal effect); details: CHO-K1 phospho-H2AX Ser139 HTRF, 3 h; series mostly up to 154 µM
# In short: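 Phospho-H2AX Ser139 measured by HTRF (ex 320 nm; em 665 and 620 nm) after 24 hr antibody incubation. Compounds, 15 concentrations, 0.76% DMSO, were applied to CHO-K1 cells for 3hr at 37C before lysis.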
# [3] = qHTS assay to identify small molecule agonists of the estrogen related receptor signaling pathway with the pleiotropic PPARgamma coactivator (PGC) from Tox21 10K library (AID 1224842); details: PGC/ERR reporter cell line, luciferase ONE-Glo, 18 h; series mostly up to 92.4 µM; further: potency means the concentration at half of the fitted maximal effect; nearly all actives have a fitted effect of over 15% in size
# In short: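 Luminescence from One-Glo (30 min, room temperature) measured after PGC/ERR cells had 18 h at 37 C with pinned compound (23 nL in DMSO). Cells had been seeded at 2,000 per well and pre-incubated 6 h.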
# [4] = target: Nuclear receptor subfamily 1 group I member 3 (Homo sapiens) (UniProt Q14994); experiment: qHTS assay to identify small molecule antagonists of the constitutive androstane receptor (CAR) signaling pathway (AID 1224838); details: HepG2-CYP2B6-hCAR luciferase, CITCO-stimulated, 24 h; series mostly up to 92.4 µM;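 further: HepG2 cells stably expressing hCAR with CYP2B6 luciferase reporter stimulated by CITCO; nearly all actives have a fitted effect of over 40% in size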; further: potency means the concentration at half of the fitted maximal effect
# UniProt Q14994, sequence (Q14994 whole entry, looked up): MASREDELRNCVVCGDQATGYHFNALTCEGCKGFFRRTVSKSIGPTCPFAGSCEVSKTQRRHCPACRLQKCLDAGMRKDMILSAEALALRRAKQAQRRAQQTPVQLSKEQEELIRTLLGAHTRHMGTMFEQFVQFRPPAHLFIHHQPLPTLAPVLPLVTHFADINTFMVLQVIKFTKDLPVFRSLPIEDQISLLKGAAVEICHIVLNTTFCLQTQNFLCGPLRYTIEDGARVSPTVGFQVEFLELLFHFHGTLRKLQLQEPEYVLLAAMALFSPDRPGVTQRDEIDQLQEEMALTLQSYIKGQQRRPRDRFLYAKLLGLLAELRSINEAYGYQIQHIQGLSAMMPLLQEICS
# In short: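 Reporter luminescence was quantified after 24 h exposure of hCAR/CYP2B6-2.2kb double-stable HepG2 cells to compounds at 15 concentrations in the presence of 50 nM CITCO final.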
# [5] = qHTS assay to identify small molecule antagonists of the estrogen related receptor signaling pathway with the pleiotropic PPARgamma coactivator (PGC) from Tox21 10K library - cell viability counter screen (AID 1224840; active means well fitted cell-killing curve with a large enough effect in the repeat runs, not every such curve was filed as active; inconclusive means weak or mixed curves, or effect the other way; inactive means no such curve, though single readings can be large or run the other way; further: nearly all actives have a fitted effect of over 40% in size; further: potency means the concentration at half of the fitted maximal effect); details: PGC/ERR reporter cells viability, CellTiter-Fluor, 17.5 h; series mostly up to 92.4 µM
# In short: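 Here the PGC/ERR cells serve as a cytotoxicity control: they are exposed to compounds for 17.5 hours at 37 C, and live-cell signal is quantified using CellTiter-Fluor fluorescence.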
# [6] = qHTS assay to identify small molecule antagonists of the estrogen related receptor signaling pathway with the pleiotropic PPARgamma coactivator (PGC) from Tox21 10K library (AID 1224841; call rule not given here; further: actives are mostly falling curves and most rising ones were filed inactive; nearly all actives have a fitted effect of over 50% in size; further: potency means the concentration at half of the fitted maximal effect); details: PGC/ERR reporter cell line, ONE-Glo luciferase, 18 h; series mostly up to 92.4 µM
# In short: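 Each well held 2,000 PGC/ERR cells, pre-incubated six hours (37 C, 5% CO2). Test substances in DMSO were added by pin tool and left for 18 h at 37 C before luciferase detection by One-Glo.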
# [7] = qHTS assay to identify small molecule agonists of the hypoxia (HIF-1) signaling pathway - cell viability counter screen (AID 1224844; calls by dose curve; further: nearly all actives have a fitted effect of over 50% in size; further: potency means the concentration at half of the fitted maximal effect); details: HRE-bla ME-180 viability, CellTiter-Glo luminescence, 17 h; series mostly up to 76.8 µM
# In short: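 Multiplexed with the HRE beta-lactamase assay, this viability read used CellTiter-Glo luminescence (30 min, RT) on HRE-bla ME-180 cells treated 17 hrs with compounds in 0.5% dialyzed FBS medium.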
# [8] = target: Thyrotropin receptor (Homo sapiens) (UniProt P16473); experiment: qHTS assay to identify small molecule agonists of the thyroid stimulating hormone receptor (TSHR) signaling pathway (AID 1224843; calls by dose curve; further: nearly all actives have a fitted effect of over 45% in size; further: potency means the concentration at half of the fitted maximal effect); details: TSHR-HEK293 cells, cAMP HTRF, agonist mode, 30 min; activation: at 92.4 µM (top of the series) unless noted
# UniProt P16473, sequence (P16473 whole entry, looked up): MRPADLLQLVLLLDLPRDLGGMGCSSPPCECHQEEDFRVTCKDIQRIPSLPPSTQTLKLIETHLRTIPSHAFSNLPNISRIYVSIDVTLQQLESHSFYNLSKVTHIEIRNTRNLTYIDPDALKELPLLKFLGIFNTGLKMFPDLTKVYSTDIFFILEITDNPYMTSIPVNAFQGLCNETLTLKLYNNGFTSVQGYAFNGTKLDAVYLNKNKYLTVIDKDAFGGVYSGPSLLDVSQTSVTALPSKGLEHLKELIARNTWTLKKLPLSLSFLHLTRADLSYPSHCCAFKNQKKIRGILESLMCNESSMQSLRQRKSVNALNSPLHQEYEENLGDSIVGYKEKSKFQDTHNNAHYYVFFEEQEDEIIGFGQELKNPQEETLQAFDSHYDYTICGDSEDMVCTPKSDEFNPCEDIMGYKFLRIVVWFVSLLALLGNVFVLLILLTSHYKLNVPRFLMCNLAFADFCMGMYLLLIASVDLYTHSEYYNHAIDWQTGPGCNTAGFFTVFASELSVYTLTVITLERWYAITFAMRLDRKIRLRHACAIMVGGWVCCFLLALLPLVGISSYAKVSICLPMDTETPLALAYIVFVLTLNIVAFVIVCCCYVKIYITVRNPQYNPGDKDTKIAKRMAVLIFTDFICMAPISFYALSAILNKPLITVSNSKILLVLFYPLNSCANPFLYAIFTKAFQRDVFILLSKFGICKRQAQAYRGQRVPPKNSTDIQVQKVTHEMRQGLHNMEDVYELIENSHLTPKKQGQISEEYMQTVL
# In short: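 HEK293 cells stably bearing the thyrotropin receptor were plated at 800 cells/well and challenged with compound (30 min, RT). Accumulated cAMP was quantified via cAMP-d2 competing for cryptate-tagged antibody.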
# [9] = target: Nuclear receptor subfamily 1 group I member 3 (Homo sapiens) (UniProt Q14994); experiment: qHTS assay to identify small molecule agonists of the constitutive androstane receptor (CAR) signaling pathway (AID 1224839); details: HepG2 hCAR CYP2B6-luciferase, agonist mode, 24 h; series mostly up to 92.4 µM; further: nearly all actives have a fitted effect of over 15% in size
# In short: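 A 15-concentration quantitative screen uses HepG2 cells co-transfected stably with human CAR and CYP2B6-2.2kb reporter. Treatment lasts 24 h with 0.75 uM PK11195 final present; ONE-Glo luminescence is the signal.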
# Tags describe the fitted curve by direction and shape or compound fluorescence and quenching.
structure (smiles),measurement,setting,value
COc1cc(Nc2c(C#N)cnc3cc(OCCCN4CCN(C)CC4)c(OC)cc23)c(Cl)cc1Cl,Potency,[1],"inconclusive: 5.31 µM [cytotoxic, partial curve]"
same,Potency,[2],active: 7.8 µM
Cc1ccc2c(c1[N+](=O)[O-])C(=O)c1ccccc1C2=O,Potency,[1],"inconclusive: 1.69 µM [cytotoxic, full curve]"
same,Potency,[3],"inconclusive: 30 µM [activator, partial curve]"
COc1ccccc1N=Nc1c(S(=O)(=O)O)cc2cc(S(=O)(=O)O)cc(NC(C)=O)c2c1O,Potency,[4],"inconclusive: 10.2 µM [inhibitor, full curve, poor fit]"
same,Potency,[5],active: 25.7 µM
same,Potency,[6],inconclusive: 22.9 µM
same,Potency,[2],inconclusive: 23.8 µM [cytotoxic]
c1ccc(CNCc2ccccc2)cc1,Potency,[4],inactive
CC1=C(/C=C/C(C)=C\C=C\C(C)=C\C(=O)O)C(C)(C)CCC1,Potency,[1],"inconclusive: 61.1 µM [cytotoxic, partial curve, poor fit]"
same,Potency,[7],active: 49 µM
same,Potency,[2],"inconclusive: 101 µM [falling, partial curve, poor fit]"
Nc1ccncc1N,Potency,[1],inactive
same,Potency,[8],inactive
Cn1c(=O)c2c(ncn2C)n(C)c1=O,Potency,[4],"inconclusive: 69.4 µM [inhibitor, single point]"
same,Potency,[5],"inconclusive: 31 µM [cytotoxic, partial curve]"
Nc1nc(F)nc2c1ncn2[C@@H]1O[C@H](CO)[C@@H](O)[C@@H]1O,Potency,[4],"inconclusive: 5.31 µM [inhibitor, full curve]"
CC(=O)OCC1=C(C(=O)O)N2C(=O)[C@@H](NC(=O)Cc3cccs3)[C@H]2SC1,Potency,[4],inactive
N=C(N)N,Potency,[4],inactive
c1ccc(SSc2ccccc2)cc1,Potency,[4],active: 43.6 µM
same,Potency,[9],inactive
same,Potency,[2],"inconclusive: 40.4 µM [fluorescent, partial curve]"
CC(C)COCC(CN(Cc1ccccc1)c1ccccc1)N1CCCC1 (stereo not given),Potency,[4],active: 18.8 µM
same,Potency,[5],active: 29.8 µM
same,Potency,[7],inconclusive: 23.9 µM [cytotoxic]
same,Potency,[2],active: 49.2 µM
CC(C)(CO)[C@@H](O)C(=O)NCCCO,Potency,[4],"inconclusive: 2.66 µM [inhibitor, full curve]"
COc1cc(C(=O)OCCCN2CCCN(CCCOC(=O)c3cc(OC)c(OC)c(OC)c3)CC2)cc(OC)c1OC,Potency,[1],"inconclusive: 26.6 µM [cytotoxic, partial curve]"
same,Potency,[6],inactive
same,Potency,[7],"inconclusive: 21.3 µM [cytotoxic, partial curve, poor fit]"
CCCCCCCCCCCCCCCCCC(=O)OCC(CC)CCCC (stereo not given),Potency,[1],inactive
same,Potency,[2],inactive
CC(=O)[C@H]1CC[C@H]2[C@@H]3C=CC4=CC(=O)CC[C@@]4(C)[C@@H]3CC[C@]12C,Potency,[4],"inconclusive: 2.37 µM [inhibitor, full curve]"
same,Potency,[9],inactive
same,Potency,[5],inconclusive: 33.5 µM [cytotoxic]
COc1cc(NCc2ccc3nc(N)nc(N)c3c2C)cc(OC)c1OC,Potency,[1],"inconclusive: 0.0596 µM [cytotoxic, full curve]"
same,Potency,[8],"inconclusive: 10.6 µM [activator, partial curve]"
same,Potency,[2],inconclusive: 43.8 µM [partial curve]
CN(C)c1ccc(O)c2c1C[C@H]1C[C@H]3[C@H](N(C)C)C(=O)C(C(N)=O)=C(O)[C@@]3(O)C(=O)C1=C2O,Potency,[1],"inconclusive: 48.6 µM [cytotoxic, partial curve]"
same,Potency,[7],"inconclusive: 43.6 µM [cytotoxic, partial curve, poor fit]"
same,Potency,[2],"inconclusive: 89.8 µM [cytotoxic, partial curve]"
Cc1nc2c([nH]1)c(=O)n(C)c(=O)n2Cc1ccco1,Potency,[1],inactive
same,Potency,[2],inactive
CCc1nnc(NS(=O)(=O)c2ccc(N)cc2)s1,Potency,[4],"inconclusive: 33.5 µM [inhibitor, single point]"
CN(C)CC/C=C1\c2ccccc2COc2ccccc21,Potency,[1],"inconclusive: 11.9 µM [cytotoxic, partial curve]"
same,Potency,[2],inactive
Nc1ccn([C@@H]2O[C@H](CO)[C@@H](O)C2O)c(=O)n1 (stereo not given in full),Potency,[4],"inconclusive: 0.0969 µM [inhibitor, full curve]"
same,Potency,[5],inactive
same,Potency,[7],inactive
same,Potency,[2],active: 56.6 µM
CC(=O)S[C@@H]1CC2=CC(=O)CC[C@]2(C)[C@H]2CC[C@@]3(C)[C@@H](CC[C@@]34CCC(=O)O4)[C@H]12,Potency,[4],active: 54.5 µM
same,Potency,[9],inactive
same,Potency,[5],"inconclusive: 68.6 µM [cytotoxic, single point]"
same,Potency,[7],"inconclusive: 38.9 µM [cytotoxic, partial curve]"
same,Potency,[2],"inconclusive: 127 µM [rising, partial curve, poor fit]"
